# From the supplement of paper PMC11417369
# ± gives the standard deviation of the averaged measurements. The list shows a part of the results.
# System: PfAP2-LT AP2 domain (GST-tagged)
# Assay: gcPBM binding intensity (ln(normalized median fluorescence intensity)); higher = stronger DNA binding
# Procedure, shortened: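 GST-fused DNA-binding domains of P. falciparum, expressed in E. coli, were applied at about 25 μg on average for 1 h to an Agilent 4 × 180k array of primer-extended double-stranded 36-bp intergenic genomic probes and negative controls. Binding intensity is the highest Masliner-normalised natural-log median intensity across replicate spots of either probe orientation, measured with Alexa488 anti-GST antibody and a 488 nm scan.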
row,Sequence,gcPBM binding intensity (ln)
1,CGTTGTAGGGAATGTAGTACAGTTATTATTTTATTA [XGTACX_site2429],8.7 ± 0.33
2,TCATACATTTTCAGCCTGCACTTATATTTAATAATA [GTGCAC_site9863],8.69 ± 0.42
3,TATATATATAAATACACACACACACCGATATATATA [CACACA_site5408],9.97 ± 0.11
4,ATATATATATATTATACACACGCCGAAAAAATAAAA [CACACA_site1551],9.15 ± 0.33
5,TTACGAAAAAACAAGAGTACATGATGTTATAAAATA [XGTACX_site1412],8.77 ± 0.51
6,TTTATTTTATCTAAAAGTACTTAAATTAGTGTATTT [XGTACX_site5696],8.46 ± 0.4
7,ATTATGTGAGGTAACTAAATATGTACGTAACGAAGA [CACACA_negctrl_site1400],9.04 ± 0.42
8,ATTATATTTTTAAGTACACACATATAAATAAATATA [CACACA_site7682],8.67 ± 0.38
9,TATTAATTATTTTACTGTACTAATAATACTTTTATT [XGTACX_site2179],8.76 ± 0.47
10,TAATGTATAATTAATCGTACATTAGATTGTTGTGTT [XGTACX_site52],8.82 ± 0.4
11,ATATATATATATGTGTGTACTTAAAAATATAATGCA [XGTACX_site7753],9.36 ± 0.3
12,ATTTCCCCAACGTGGGTGCATATATTTATGTGTGAA [GTGCAC_site9439],8.81 ± 0.44
13,TTTCGTAAACAAATTTGTACGTACAAATTTATAAAT [XGTACX_site8175],8.64 ± 0.42
14,TTTTTACTAATAAGATGTACATATATCCTAAGCATA [XGTACX_site251],8.47 ± 0.45
15,TCTTTTATTAGTAAAAGTACTTATATAAATATTATA [XGTACX_site5099],8.23 ± 0.47
16,TACATACATACATACACACATACATATATATATATA [CACACA_site1387],9.56 ± 0.28
17,ATAATATAATAAACGTGTACACAATTAAATTATTAT [XGTACX_site3491],9.01 ± 0.31
18,TGTTTTTTATTTAATTGTACGAATTAAAAAAAATAA [XGTACX_site3009],8.04 ± 0.36
19,TTCCAACCATAGTATTCACACATTGTTTTATTCCAT [CACACA_site4927],8.98 ± 0.43
20,AATATTCATATGCAGGTGCATTAATTTTTATTAATT,8.61 ± 0.45
21,GAAAAAAAAAAAAATACACACAAATTGGTATATAAT [CACACA_site4369],9.02 ± 0.4
22,AATACTCTATTTTATAGTACATATATTATTAATCAC [XGTACX_site6622],8.77 ± 0.43
23,TAGCTCGTTCGGAGCACACACATATAAATAAATATA [CACACA_site7002],8.91 ± 0.45

row,Sequence,gcPBM binding intensity (ln)
1,TATCAAATCCAAAGGGGTACATTTTGTTGTCCTAAT [XGTACX_site5575],8.63 ± 0.39
2,TAGGGATTATACCACACACACATACCCATAAATATA [CACACA_site5719],9.55 ± 0.33
3,ATAGACAGCGCACAAACACACAAACACGCACGCACA [CACACA_site6349],9.69 ± 0.23
4,TATTAACAAAATTTTTAACACACAAAAAAAAAAAAA [CACACA_site8542],8.59 ± 0.47
5,TTTTTTGTTATATTTGTGCGCAAAAATTGCTGCTTG,8.94 ± 0.51
6,CATAATATATTTTATGCATGCAAAGCAACCTTTTGA [TGCATGCA_site715],8.71 ± 0.36
7,TTTGTAAAATAATATCTTTCATGTCCTTACTAATTA [GTGCAC_negctrl_site145],8.69 ± 0.56
8,AAAATTTATGTAAAATGTACATACATAAATAAAGAT [XGTACX_site4339],9.11 ± 0.48
9,ATTATATATATATATAAACACACATAAATATAAATA [CACACA_site8291],8.96 ± 0.39
10,TATTTATTTAAAGGCACACATATTTTTATACTTTCT [CACACA_site3163],8.79 ± 0.49
11,CAAATTTTTTATTAAACACACAAACATATATTTATA [CACACA_site6992],8.53 ± 0.45
12,AAAAAAGAAAAGAAATCATGAAAGAATCAAATAAAG [CACACA_negctrl_site1771],8.79 ± 0.49
13,TTTTTATATATATTCTCACACACTTTTTATTTTAAC [CACACA_site657],9.04 ± 0.47
14,TAAGGAAAAAATTATAGTACATAATAAATGTATATA [XGTACX_site8328],8.62 ± 0.57
15,ATAAATATATTTCACGCACACACACCCCAAATAAAT [CACACA_site9272],10.1 ± 0.2
16,TAAAAAACTTCGTGTTCACACATGTACTATATTATT [CACACA_site4796],8.79 ± 0.42
17,TTTTTTTTTTTTTGTTGTACATTAAATATATTATTA [XGTACX_site7254],8.56 ± 0.5
18,ACCCATAAGATAATTACACACAATACATCCCTATAT [CACACA_site5262],9.39 ± 0.24
19,AAGCATATTATAAACACACACTGTATAAAGATATAT [CACACA_site6277],9.27 ± 0.37
20,AAGTATAACCTTTATAATAATGACATGACCGATTTT [CACACA_negctrl_site395],8.7 ± 0.38
21,TATAACCGAATGTGTACACAAAATAATGTTATATAT [CACACA_site5627],9.18 ± 0.42
22,ATAATACGAATTTGTAGTACATTTATAATAACATGA [XGTACX_site2614],8.65 ± 0.38
